About 220 (0.56%) of roughly 39,000 compounds showed activity. The list shows a part of the results.
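Note: static incubation at 37 °C against the wild-type strain, values averaged over two biological replicates.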

The test has as its system Escherichia coli K-12 BW25113. The experiment in a line: relative growth (OD600 normalised to plate interquartile mean) (fraction); higher = less growth inhibition, active = 0.2 or less. To be noted: 50 µM; LB; incubation time: overnight (16-24 h).
Consider `COc1cc(OC)c2c(=O)c(O)c(-c3ccc(OC)c(OC)c3)oc2c1`, for which the relative growth was inactive: 0.932.

For the compound `C[C@@H]1CN([C@@H](C)CO)C(=O)c2cc(NS(=O)(=O)c3ccc(F)cc3)ccc2O[C@H]1CN(C)C(=O)Nc1ccc(C(F)(F)F)cc1`, the relative growth is inactive: 0.951.

Take `C=CCC[C@H](Cc1ccc(F)cc1)C(=O)O[C@@H](CNC(=O)[C@@H](CC=C)CC(=O)N[C@H](CO)Cc1ccccc1)c1ccccc1`: the relative growth was inactive: 1.07.

In the case of `C[C@@H]1CN([C@H](C)CO)C(=O)c2cc(NS(=O)(=O)c3ccc(F)cc3)ccc2O[C@@H](C)CCCCO[C@H]1CN(C)CC1CCCCC1`, the relative growth is inactive: 1.02.

With `COc1c(O)cc2c(c1O)[C@@H]1O[C@H](CO)[C@@H](O)[C@H](O)[C@H]1OC2=O`, the relative growth is inactive: 1.01.

As to `C[C@@H]1CN([C@@H](C)CO)S(=O)(=O)c2ccc(Br)cc2O[C@H]1CN(C)C(=O)Cc1cccnc1`, the relative growth was inactive: 1.03.

As for `CC(=O)O[C@H]1C[C@@H](OC(C)=O)C(C)(C)[C@@H]2CC(=O)[C@]3(C)[C@H](CC[C@@]4(C)[C@H](C(=O)O)OC(=O)[C@H]5O[C@]543)[C@@]12C`, the relative growth was inactive: 1.02.

With `C[C@@H]1CN([C@H](C)CO)S(=O)(=O)c2ccc(Br)cc2O[C@@H]1CN(C)C(=O)NC1CCCC1`, the relative growth is inactive: 0.989.

Regarding `CC(C)NC(=O)Nc1ccc2c(c1)C(=O)N([C@H](C)CO)C[C@H](C)[C@H](CN(C)CC1CCCCC1)OCCCC[C@H](C)O2`, the relative growth is inactive: 0.926.

On to `C[C@H](CO)N1C[C@H](C)[C@@H](CN(C)C(=O)C2CCCCC2)OCCCC[C@H](C)Oc2ccc(NC(=O)Cc3ccccc3)cc2C1=O`, for which the relative growth is inactive: 1.01.

Regarding `C[C@H](CO)N1C[C@H](C)[C@H](CN(C)S(=O)(=O)c2ccccc2)Oc2ncc(Br)cc2C1=O`, the relative growth is inactive: 0.989.

Consider `Cc1ccc(S(=O)(=O)Nc2ccc3c(c2)C(=O)N([C@H](C)CO)C[C@@H](C)[C@H](CN(C)Cc2ccc(C(F)(F)F)cc2)OCCCC[C@@H](C)O3)cc1`, for which the relative growth was inactive: 1.07.

On to `O=C(Cn1ccnc1[N+](=O)[O-])NCCO`, for which the relative growth was inactive: 0.963.

As for `COc1ccc(S(=O)(=O)N(C)C[C@H]2Oc3ncc(-c4ccncc4)cc3C(=O)N([C@@H](C)CO)C[C@H]2C)cc1`, the relative growth is inactive: 0.984.

As to `CC(C)NC(=O)Nc1cccc2c1O[C@H](CN(C)Cc1ccc(C(=O)O)cc1)[C@@H](C)CN([C@H](C)CO)C2=O`, the relative growth is inactive: 1.02.

Turning to `C[C@@H]1CN([C@@H](C)CO)C(=O)c2cccc(NC(=O)C3CCOCC3)c2O[C@@H]1CN(C)Cc1ccc2c(c1)OCO2`, the relative growth is inactive: 0.999.

As to `C[C@H]1CN([C@@H](C)CO)C(=O)c2c(c3ccccc3n2C)-c2ccccc2CO[C@H]1CN(C)S(=O)(=O)c1ccc(C(F)(F)F)cc1`, the relative growth was inactive: 1.03.

As for `C[C@@H]1CN([C@@H](C)CO)C(=O)c2cc(NC(=O)CCC(F)(F)F)ccc2O[C@@H](C)CCCCO[C@@H]1CN(C)C(=O)Nc1ccc(F)cc1`, the relative growth is inactive: 0.992.

Take `CC(=O)Nc1c(O)[nH]c(SCC(=O)N2CCOCC2)nc1=O`: the relative growth is inactive: 0.908.

Consider `COc1ccc(NC(=O)N(C)C[C@@H]2OCCCC[C@@H](C)Oc3ccc(NS(=O)(=O)c4ccccc4)cc3C(=O)N([C@H](C)CO)C[C@H]2C)cc1`, for which the relative growth is inactive: 1.01.

For `COc1ccccc1CN1C(=O)c2ccccc2[C@@]2(Cc3ccccc3N(Cc3ccccc3)C2=O)[C@@H]1c1ccc(CO)cc1`, the relative growth was inactive: 0.991.

`COc1ccc(S(=O)(=O)N(C)C[C@@H]2Oc3ccc(N(C)C)cc3CC(=O)N([C@@H](C)CO)C[C@H]2C)cc1`: the relative growth was inactive: 1.02.

With `C[C@@H]1CN([C@@H](C)CO)C(=O)c2cc(NC(=O)c3ccncc3)ccc2O[C@@H](C)CCCCO[C@H]1CN(C)Cc1ccc(C(F)(F)F)cc1`, the relative growth is inactive: 1.01.

Turning to `O=C(O)CC(O)(CC(=O)O)C(=O)O`, the relative growth was inactive: 1.06.

Regarding `C[C@H](CO)N1C[C@H](C)[C@H](CN(C)C(=O)Nc2ccc(C(F)(F)F)cc2)Oc2ncc(/C=C/c3ccccc3)cc2C1=O`, the relative growth is inactive: 0.993.

Regarding `C[C@@H]1CCCCO[C@H](CN(C)Cc2ccccc2)[C@H](C)CN([C@H](C)CO)C(=O)c2cc(NC(=O)Nc3ccccc3)ccc2O1`, the relative growth is inactive: 0.983.

With `CCN(CC)CCOC(=O)C(c1ccccc1)C1CCCCC1.Cl` (stereo not drawn), the relative growth was inactive: 0.883.

For the compound `C[C@@H]1CCCCO[C@@H](CN(C)S(=O)(=O)c2cn(C)cn2)[C@H](C)CN([C@@H](C)CO)C(=O)c2cc(NC(=O)CCCN(C)C)ccc2O1`, the relative growth is inactive: 0.992.

Regarding `CON(C)c1nc(Oc2ccc(=O)[nH]n2)nc(N(C)C)n1`, the relative growth was inactive: 1.01.

With `O=C(C[C@@H]1CC[C@H]2[C@@H](COC[C@H](O)CN2C(=O)Nc2ccc(C(F)(F)F)cc2)O1)NCCc1ccncc1`, the relative growth is inactive: 0.961.

For the compound `C[C@H](CO)N1C[C@H](C)[C@H](CN(C)Cc2ccc(C(=O)Nc3ccccc3N)cc2)Oc2ccc(NC(=O)Cc3ccccc3)cc2C1=O`, the relative growth is inactive: 1.02.

Turning to `CN(C)[C@@H](CN)c1cccn1C`, the relative growth is inactive: 0.993.

In the case of `CC(C)NC(=O)N(C)C[C@H]1Oc2ccc(NC(=O)Cc3ccccc3)cc2C(=O)N([C@H](C)CO)C[C@H]1C`, the relative growth is inactive: 1.03.

For the compound `C[C@@H]1CN([C@@H](C)CO)C(=O)c2cccc(NC(=O)Nc3cccc4ccccc34)c2O[C@H]1CN(C)S(=O)(=O)c1ccc(F)cc1`, the relative growth was inactive: 1.02.

As to `Cc1cc(C(=O)Nc2cccc3c2O[C@H](CN(C)S(=O)(=O)c2ccc(F)cc2)[C@H](C)CN([C@@H](C)CO)C3=O)n(C)n1`, the relative growth was inactive: 1.02.

In the case of `O=C(N[C@H]1C=C[C@@H](CC(=O)N2CCOCC2)O[C@@H]1CO)c1ccccn1`, the relative growth was inactive: 0.982.

For `Cc1ccc(S(=O)(=O)Nc2ccc3c(c2)C(=O)N([C@@H](C)CO)C[C@@H](C)[C@@H](CN(C)C(=O)Nc2ccc(F)cc2)OCCCC[C@H](C)O3)cc1`, the relative growth was inactive: 1.04.

As for `Cc1noc(C)c1NC(=O)N(C)C[C@H]1OCCCC[C@@H](C)Oc2ccc(NS(=O)(=O)c3ccc(Cl)cc3)cc2C(=O)N([C@H](C)CO)C[C@@H]1C`, the relative growth was inactive: 0.999.
